This note sets out measurements from publication PMC4336329 (PLoS ONE, 2015).

Structures are written as SMILES. The campaign covered roughly 310,000 compounds. About 2,200 (0.71%) showed an effect of 50% or more. The effect is printed as a negative number. The list shows a part of the results.

Chain of human ether-à-go-go-related gene (hERG) potassium channel (Q12809 whole entry, looked up): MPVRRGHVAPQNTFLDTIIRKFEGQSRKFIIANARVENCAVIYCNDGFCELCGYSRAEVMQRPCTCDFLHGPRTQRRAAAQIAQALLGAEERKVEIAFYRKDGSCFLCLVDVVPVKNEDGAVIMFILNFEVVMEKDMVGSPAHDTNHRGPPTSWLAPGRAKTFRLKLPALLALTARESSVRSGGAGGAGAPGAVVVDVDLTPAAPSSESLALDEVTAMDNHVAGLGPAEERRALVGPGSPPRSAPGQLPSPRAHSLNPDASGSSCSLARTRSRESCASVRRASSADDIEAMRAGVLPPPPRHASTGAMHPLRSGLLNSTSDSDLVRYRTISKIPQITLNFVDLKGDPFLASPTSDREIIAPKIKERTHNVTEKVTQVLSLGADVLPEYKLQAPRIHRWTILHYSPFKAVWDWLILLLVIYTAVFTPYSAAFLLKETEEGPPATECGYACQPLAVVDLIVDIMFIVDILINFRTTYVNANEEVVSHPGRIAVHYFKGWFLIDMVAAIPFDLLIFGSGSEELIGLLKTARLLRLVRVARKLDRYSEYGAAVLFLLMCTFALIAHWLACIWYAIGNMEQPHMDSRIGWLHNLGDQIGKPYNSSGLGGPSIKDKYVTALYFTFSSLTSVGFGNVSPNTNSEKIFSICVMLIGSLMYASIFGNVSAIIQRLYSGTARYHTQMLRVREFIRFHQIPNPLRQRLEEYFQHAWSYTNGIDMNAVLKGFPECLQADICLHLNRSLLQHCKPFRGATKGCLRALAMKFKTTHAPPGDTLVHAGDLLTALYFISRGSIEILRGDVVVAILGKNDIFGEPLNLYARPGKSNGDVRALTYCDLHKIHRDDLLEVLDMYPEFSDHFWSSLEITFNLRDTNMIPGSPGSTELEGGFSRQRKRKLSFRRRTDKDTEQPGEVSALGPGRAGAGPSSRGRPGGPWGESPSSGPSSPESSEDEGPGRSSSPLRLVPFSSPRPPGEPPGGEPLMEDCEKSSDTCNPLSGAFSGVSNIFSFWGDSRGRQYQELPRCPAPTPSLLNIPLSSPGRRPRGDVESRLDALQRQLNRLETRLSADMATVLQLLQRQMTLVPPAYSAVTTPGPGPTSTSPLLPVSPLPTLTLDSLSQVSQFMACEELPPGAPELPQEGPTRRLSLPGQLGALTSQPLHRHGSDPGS

The test has as its target human ether-à-go-go-related gene (hERG) potassium channel (human, UniProt Q12809). The test can be described thus: primary screen, population patch clamp on CHO cells stably expressing hERG.
Turning to `Cc1ccccc1NC(=O)/C(C#N)=C/c1ccccc1C(F)(F)F`, the “hERG current change (%, negative = inhibition) at 1uM” value was found to be 17.9%.
Consider `NC1=NC(=O)CC(C(=O)Nc2cccc3ccccc23)S1` (stereo not drawn), for which the “hERG current change (%, negative = inhibition) at 1uM” value came to 12.1%.
As for `COc1ccc(CNC(=O)CN2C(=O)NC3(CCCc4sccc43)C2=O)cc1OC` (stereo not drawn), the figure is -0.222%; as for `Cc1sc(NC(=O)c2ccco2)nc1-c1ccc2c(c1)CC(C)N2C(=O)C1CC1` (stereo not drawn), 4.86%.
For `CC(=O)c1ccc(-n2c(=O)[nH]c(=O)c3c(N)c(C(=O)c4ccc(Cl)cc4)sc32)cc1`, the “hERG current change (%, negative = inhibition) at 1uM” value is recorded as -2.15%.
Then `COc1ccc(CC(NC(C)=O)C(=O)NC2CCN(S(=O)(=O)c3ccc(NC(C)=O)cc3)CC2)cc1OC` (stereo not drawn), with 11.6%.
Then `Cc1ccc(-n2c(O)c(C=NCc3ccccn3)c3ccccc3c2=O)cc1`, with 1.33%.
Turning to `Cc1cc(S(=O)(=O)NCc2ccccc2)ccc1OCC(=O)NCC1CCCO1` (stereo not drawn), the “hERG current change (%, negative = inhibition) at 1uM” value stood at 10.8%.
Then `COc1cc2[nH]c(=O)n(CCCCCC(=O)NCCCN3CCC(C)CC3)c(=O)c2cc1OC`, with 16.9%; and `COc1cc(OC)c(NC(=O)c2csc(C)c2)cc1Cl`, with 9.8%; and `COc1ccccc1/C=N\NC(=O)c1c(C)nc2ccc(Cl)cn12`, with 13.2%.
Consider `COc1ccccc1NC(=O)CSc1nnnn1C`, for which the “hERG current change (%, negative = inhibition) at 1uM” value came out at 16.4%.
On to `COc1cc(C(=O)N/N=C(\C)Cn2nc([N+](=O)[O-])cc2C)ccc1O`, for which the “hERG current change (%, negative = inhibition) at 1uM” value is recorded as -3.72%.
Then `Cc1ccc(CN2CCN(Cc3cccc4nccnc34)CC2CCO)cc1` (stereo not drawn), with -53.3%; and `CC(C)(C)c1csc(NC(=O)c2ccncc2)n1`, with 1.52%.
Turning to `C#CCOCCOCCOCCNc1nc(N2CCN(C(=O)CCCCCCCCCCNC(=O)[C@H](CCCCN)n3cc(CCO)nn3)CC2)nc(N2CCN(C(=O)CCCCCCCCCCNC(=O)[C@@H]([C@H](C)O)n3cc(C)nn3)CC2)n1`, the “hERG current change (%, negative = inhibition) at 1uM” value is listed as 4.63%.
As for `COc1cc(C=O)ccc1OCCCOc1ccccc1[N+](=O)[O-]`, the “hERG current change (%, negative = inhibition) at 1uM” value is on record as 4.45%.
On to `O=C(CC1NCCNC1=O)Nc1ccc2c(c1)OCCO2` (stereo not drawn), for which the “hERG current change (%, negative = inhibition) at 1uM” value is 6.18%.
Then `O=C(NCC(=O)N(CC1CCCO1)C(C(=O)NC1CCCC1)c1cccnc1)c1ccco1` (stereo not drawn), with 6.65%.
On to `COC(=O)c1c(NC(=O)CN2CCCC(C)C2)c2c(C)cccc2n1C` (stereo not drawn), for which the “hERG current change (%, negative = inhibition) at 1uM” value was 5.7%.
As for `CSc1ccc(OC2CCCCC2NS(=O)(=O)c2ccccc2)cc1` (stereo not drawn), the figure is 12.5%; as for `COCCOC(=O)C1=C(C)OC(N)=C(C#N)C1c1cc2cccc(C)c2nc1Cl` (stereo not drawn), 10.4%.
As for `Cc1ccc2c(c1)c1c3n2CCN=C3CCC1.Cl`, the figure is -65.6%.
As for `COC(=O)[C@@]12CCCN1[C@H](c1ccc(-c3ccc(F)cc3)c(OC)c1)[C@H]1C(=O)N(C)C(=O)[C@H]12.O=C(O)C(F)(F)F`, the figure is 2.03%; as for `CC1(C)CN2C(c3ccc(Cl)cc3)N2C1` (stereo not drawn), 13.6%; as for `O=c1c2c3nc4ccccc4nc3n(-c3ccc4c(c3)OCCO4)c2ncn1C1CCCC1`, 9.38%.
As for `CCOC(=O)C1(CCOc2ccccc2)CCN(Cc2ccc(C(=O)OC)cc2)CC1`, the “hERG current change (%, negative = inhibition) at 1uM” value is listed as -15.5%.
As for `O=C(CSc1ccc(-c2ccccc2)nn1)Nc1ccc2c(c1)OCCO2`, the figure is 8.92%; as for `O=C(Nc1ccc(F)c(Cl)c1)C1CC(=O)N(Cc2ccccc2)C1` (stereo not drawn), 9.18%.
As for `CCn1cc(C(=O)O)c(=O)c2cc(F)c(N3CCN(C(=S)NC(=O)c4ccccc4Cl)CC3)cc21`, the figure is 6.52%; as for `Cc1ccc(OCC(=O)Nc2ccc(-c3nnc(-c4ccco4)o3)cc2)cc1`, 12%; as for `CCN1CCN(c2nc3c(C)cccn3c(=O)c2/C=C(\C#N)S(=O)(=O)c2ccc(C)cc2)CC1`, -2.87%.
As for `CCOCCCNC(=S)NCCNc1nc2ccc(C)cc2cc1C#N`, the figure is 4.11%.
Consider `N#Cc1ccc2ccn(CC(=O)NC3CCCCCC3)c2c1`, for which the “hERG current change (%, negative = inhibition) at 1uM” value worked out at 15.5%.
As for `Fc1ccc(CO/N=C/C2=C(Cl)c3ccccc3CC2)cc1`, the “hERG current change (%, negative = inhibition) at 1uM” value turned out to be 15.4%.
Then `COP(=O)(OC)C(NC(C)=O)C(Cl)(Cl)Cl` (stereo not drawn), with 10.7%.
Then `Cc1nn(C(C)C(=O)NCCCN2CCCCCC2)c(=O)c2cc3sccc3n12` (stereo not drawn), with 4.7%.
As for `COc1cccc(/C=C/C(=O)N2CCN(c3n[nH]c(=O)[nH]c3=O)CC2)c1OC`, the figure is 11%.
In the case of `C[C@@H](C(=O)Nc1ccc2ccccc2c1)[C@@H]1C[C@@]1(C)[C@@H](N)c1ccccc1.Cl`, the “hERG current change (%, negative = inhibition) at 1uM” value is reported as 14%.
As for `COc1ccc(C2OCC3(CO2)SC(N)=NC3=O)cc1` (stereo not drawn), the figure is 13.4%; as for `CC(C)C(=O)NC(Nc1cccc2cccnc12)C(Cl)(Cl)Cl` (stereo not drawn), 9.12%.
Turning to `CCC(=O)Nc1cc2[nH]c(=O)cc(C)c2cc1C`, the “hERG current change (%, negative = inhibition) at 1uM” value amounted to 18.2%.
In the case of `COc1ccc(S(=O)(=O)NCc2ccc3c(c2)OCO3)cc1C(=O)O`, the “hERG current change (%, negative = inhibition) at 1uM” value amounted to 13.8%.
As for `CC(C)N1C(=O)CCC1C(=O)NCc1ccco1` (stereo not drawn), the figure is -4.2%.
Then `CC(=O)c1c(COC(=O)c2ccc(F)cc2)nc2ccccc2[n+]1[O-]`, with 11.8%; and `FC(F)(F)c1nnc(Nc2ccc(Cl)cc2)s1`, with 12%; and `COc1ccc(-c2cc(C(F)(F)F)nc(SCC(=O)N(C)Cc3cn(C)nc3C)n2)cc1OC`, with -3.07%.
Then `Cc1ccc(C(C)(c2ccc(N)cc2)c2ccc(N)cc2)cc1`, with 11.7%; and `CCN1CCN(C(=O)CCS(=O)(=O)c2cc3c(cc2Cl)NC(=O)CO3)CC1`, with 7.42%; and `Cc1ccc(/C=C/C(=O)OCC(=O)NC(=O)NCc2ccco2)cc1`, with 11.6%.
With `Cc1ccc(NC(=O)CCN2CCOCC2)cc1C`, the “hERG current change (%, negative = inhibition) at 1uM” value is recorded as 11.1%.
As for `Cc1cccc(C)c1NC1=NCCCCC1`, the figure is 0.733%; as for `Fc1cccc(NC(=S)NCc2ccc(Cl)cc2)c1`, 3.05%; as for `O=c1c2c3c(sc2n(CCN2CCCCC2)c(=O)n1Cc1ccco1)CCCCC3`, 3.26%.
As for `CC1CCCN(S(=O)(=O)c2ccc(NC(=O)CN3CCN(C)CC3)cc2)C1.Cl` (stereo not drawn), the figure is 5.9%; as for `CCCc1nc2ccccc2c(=O)n1/N=C/c1ccc(O)cc1O`, -0.0666%; as for `CCCNC(=S)Nc1ccc(Cl)cc1Cl`, 5.16%.
As for `CSc1cccc(NC(=O)CCn2c(=O)c3cccn3c3cccnc32)c1`, the figure is 11.2%.
In the case of `CCN(CC)S(=O)(=O)c1ccc2c(c1)nc(SCn1nnc3ccccc3c1=O)n2CC`, the “hERG current change (%, negative = inhibition) at 1uM” value is listed as 20.7%.
For `O=C(N/N=C/c1cccn1-c1cccc(C(=O)O)c1)Nc1ccccc1`, the “hERG current change (%, negative = inhibition) at 1uM” value was 10.7%.
Turning to `Cc1ccc(NC(=O)CS(=O)CC(=O)NCC2CCCO2)cc1` (stereo not drawn), the “hERG current change (%, negative = inhibition) at 1uM” value stood at 10.2%.
For `CC(C)OC(=O)CSc1nc2cc3c(cc2cc1C#N)OCO3`, the “hERG current change (%, negative = inhibition) at 1uM” value amounted to 13.1%.
Then `C/C(=N\NS(=O)(=O)c1ccc([N+](=O)[O-])cc1)c1ccc(NC(=O)c2ccco2)cc1`, with 10.3%.
As for `Cc1c(CBr)[n+](=O)c2c(n1[O-])C(Br)CCC2Br` (stereo not drawn), the figure is 17.6%; as for `CC(=O)Nc1ccc(NC(=O)Oc2ccccc2)cc1`, 17.4%.
As for `CCOC(=O)Oc1ccc2oc(=O)cc(C)c2c1`, the figure is 19.2%.
For `CCc1ccccc1NC(=O)CCCN1C(=O)c2cccnc2C1=O`, the “hERG current change (%, negative = inhibition) at 1uM” value was 11.9%.
On to `COc1cc2sc(C)nc2c2sccc12`, for which the “hERG current change (%, negative = inhibition) at 1uM” value came out at 7.65%.
Then `CN1CCOc2cc(S(=O)(=O)NCc3ccc(S(N)(=O)=O)cc3)ccc21`, with 8.67%; and `Cc1ccccc1CN1C(=O)/C(=C\c2ccc(C(=O)NCCN3CCOCC3)cc2)Sc2ccccc21`, with 10.8%; and `CC(C)CN(C(=O)COC(=O)Cn1cnc2ccccc2c1=O)C1CCS(=O)(=O)C1` (stereo not drawn), with 14.5%.
As for `COc1cc(Cc2ccc(N)c(OC)c2)ccc1N`, the figure is 9.15%.
As for `CCN=C1S/C(=C\c2cc(Cl)c(OC)c(OC)c2)C(=O)N1CC`, the figure is 6.92%; as for `Cc1ccc(S(=O)(=O)NNC(=O)Nc2ccc(Cl)c(Cl)c2)cc1`, 10%; as for `O=C(Nc1ccc(Cl)cc1)NC1(C(=O)NCCCN2CCOCC2)CCCCC1`, 3.73%.
Consider `Cc1ccc(NC(=O)c2cc(=O)[nH]c3ccc(S(=O)(=O)N4CCOCC4)cc23)cc1`, for which the “hERG current change (%, negative = inhibition) at 1uM” value is recorded as 6.31%.
Take `O=C(Nc1ccc(F)cc1)N1CCn2c(nc3ccccc32)C1`: the “hERG current change (%, negative = inhibition) at 1uM” value was -3.54%.
As for `O=C(Nc1ccccc1)Nc1cc([N+](=O)[O-])ccc1F`, the figure is 11.5%.
As for `Cc1ccc(-c2ccc(/C=N/c3ncn[nH]3)o2)cc1Cl`, the figure is 12%; as for `CCn1c(CNC(=O)c2ccco2)nnc1SCC(=O)c1ccc(OC)cc1`, 7.01%.
In the case of `Cc1[nH]c2ccccc2c1C(Nc1nccs1)c1ccncc1` (stereo not drawn), the “hERG current change (%, negative = inhibition) at 1uM” value is listed as 20%.
As for `CC(Sc1nc(C(C)(C)C)cc(-c2ccccc2)c1C#N)C(=O)Nc1ccccc1` (stereo not drawn), the figure is -3.03%; as for `CSCC(C)N1CCC(CCC(=O)NC2CC2)CC1` (stereo not drawn), 4.72%.
Then `Cn1c(COc2ccc(C(=O)O)cc2)nc2ccccc21`, with 14.2%.
As for `COc1ccc(Cl)cc1N(CC(=O)NC1CC1)S(=O)(=O)c1ccc(C)c([N+](=O)[O-])c1`, the figure is 5.89%.
`CCCn1c(=O)c(Br)cn(-c2ccccc2C)c1=O`: the “hERG current change (%, negative = inhibition) at 1uM” value is 16.1%.
For the molecule `O=C(NCc1ccccc1)c1ccc(CS(=O)(=O)Cc2ccc(F)cc2)o1`, the “hERG current change (%, negative = inhibition) at 1uM” value is on record as 17%.
